About 31,000 (8.9%) of roughly 350,000 compounds were called active. This list was built around the results that the source calls inconclusive (neither active nor inactive); the mix of calls is not that of the screen. Calls come from the whole dose curve; as a rule, active = well fitted inhibition curve with a large enough effect; inconclusive = small, poorly fitted or top-dose-only effect; inactive = no such curve, though single readings can be large or run the other way. Where the call is inconclusive, the potency comes from a doubtful curve fit.
The molecules below were run against Histone-lysine N-methyltransferase EHMT2 (Homo sapiens) (UniProt Q96KQ7) (assay: qHTS Assay for Inhibitors of Histone Lysine Methyltransferase G9a). Settings: G9a H3K9 monomethylation, AlphaScreen, 2 h; activity, negative = inhibition: at 59 µM (top of the series) unless noted.
How it was run: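 Step 1: enzyme (final 20 nM) with compound, 15 min RT. Step 2: substrate peptide 500 nM and SAM 20 uM, 2 h RT. Step 3: anti-H3K9me1 antibody and AlphaScreen beads, 10 min, then plate read.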
% is set by controls: 0 for no effect and ±100 for the full control effect; potency is the fitted concentration of half-maximal effect; tags give direction and shape of the fitted curve.
Note: nearly all actives have a fitted effect of over 75% in size.

Chain of UniProt Q96KQ7 (Q96KQ7 whole entry, looked up): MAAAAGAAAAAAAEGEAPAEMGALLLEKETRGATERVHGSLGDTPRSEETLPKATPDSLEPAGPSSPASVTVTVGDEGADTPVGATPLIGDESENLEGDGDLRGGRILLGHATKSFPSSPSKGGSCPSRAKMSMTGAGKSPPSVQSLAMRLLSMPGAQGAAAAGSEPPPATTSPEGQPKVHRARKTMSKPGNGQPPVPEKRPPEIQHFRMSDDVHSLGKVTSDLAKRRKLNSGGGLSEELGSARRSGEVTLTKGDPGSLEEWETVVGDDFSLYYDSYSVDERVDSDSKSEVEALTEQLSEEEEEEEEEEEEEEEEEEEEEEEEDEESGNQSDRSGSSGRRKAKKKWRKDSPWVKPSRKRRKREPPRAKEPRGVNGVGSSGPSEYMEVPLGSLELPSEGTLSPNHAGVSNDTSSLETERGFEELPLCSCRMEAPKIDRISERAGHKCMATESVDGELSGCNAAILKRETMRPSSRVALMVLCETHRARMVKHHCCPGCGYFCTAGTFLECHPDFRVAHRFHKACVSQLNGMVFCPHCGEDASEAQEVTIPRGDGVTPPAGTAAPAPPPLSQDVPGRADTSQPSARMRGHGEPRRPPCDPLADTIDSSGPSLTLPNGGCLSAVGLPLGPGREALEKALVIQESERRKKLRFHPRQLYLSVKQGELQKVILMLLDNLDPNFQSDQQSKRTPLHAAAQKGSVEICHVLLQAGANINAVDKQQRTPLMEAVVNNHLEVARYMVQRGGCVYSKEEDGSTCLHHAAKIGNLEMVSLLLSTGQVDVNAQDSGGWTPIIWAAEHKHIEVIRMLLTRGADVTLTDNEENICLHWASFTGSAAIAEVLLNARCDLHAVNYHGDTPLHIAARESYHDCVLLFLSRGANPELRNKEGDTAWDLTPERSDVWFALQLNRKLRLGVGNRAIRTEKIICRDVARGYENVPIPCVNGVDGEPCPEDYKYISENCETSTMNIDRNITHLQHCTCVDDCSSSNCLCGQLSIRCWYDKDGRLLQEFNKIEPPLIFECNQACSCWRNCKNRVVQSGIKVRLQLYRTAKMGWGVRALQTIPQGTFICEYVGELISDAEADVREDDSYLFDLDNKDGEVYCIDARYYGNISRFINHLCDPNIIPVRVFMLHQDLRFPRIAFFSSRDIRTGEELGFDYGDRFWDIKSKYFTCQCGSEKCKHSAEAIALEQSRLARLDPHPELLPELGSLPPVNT

Row | SMILES | Potency | activity, negative = inhibition
1 | CC(C)c1ccc(-c2c(C#N)c(N)nc3c2CCCCC3)cc1 | active: 1.78 µM | –
2 | O=C(CN1CCN(Cc2ccccc2)CC1)c1c[nH]c2ccccc12 | active: 39.8 µM | –
3 | O=C(CNC(=O)c1ccc(Cl)cc1Cl)OCCCn1c(=O)[nH]c2ccccc21 | inactive | –
4 | CCOC(=O)C1CCCN(CC(O)COC(c2ccccc2)c2ccccc2)C1 (stereo unspecified) | inactive | –
5 | Clc1nc(CN2CCCCC2)nc2sc3c(c12)CCC3 | inconclusive: 50.1 µM [inhibitor, partial curve, poor fit] | –
6 | CCOC(=O)c1c(C)[nH]c(C(=O)OC(C)C(=O)NCc2ccccc2)c1C (stereo unspecified) | inconclusive: 5.62 µM [inhibitor, partial curve] | –
7 | Cc1ccc(NC(=O)CNc2cccc(S(=O)(=O)N3CCCCC3)c2)cc1F | inconclusive: 89.1 µM [inhibitor, single point] | –
8 | Cc1ccc(S(=O)(=O)N2CCOCC2)cc1NC(=O)CSc1ccccn1 | inconclusive: 35.5 µM [inhibitor, partial curve, poor fit] | –
9 | COc1ccccc1C1CC(=O)N(c2cccc(C(F)(F)F)c2)C2=C1C(=O)OC2 (stereo unspecified) | inactive | –
10 | Cc1cc(C(=O)COC(=O)[C@H](C)NC(=O)c2ccco2)c(C)n1Cc1ccco1 | inconclusive: 56.2 µM [inhibitor, partial curve, poor fit] | –
11 | COc1cccc(/C=N/N2CCN(C3c4ccccc4-c4ccccc43)CC2)c1O | active: 35.5 µM | –
12 | CCOC(=O)c1sc2c(c1C)C(c1cccs1)C1=C(CCCC1=O)N2 (stereo unspecified) | inconclusive: 50.1 µM [inhibitor, partial curve, poor fit] | –
13 | CC1(C)CC(=O)C=C(c2cccc3c2sc2ccccc23)C1 | – | inactive: 3.85% [at 0.501 µM]
14 | CCOC(=O)C1=C(O)C(=O)N(C2CCCCC2)C1 | inconclusive: 44.7 µM [inhibitor, partial curve, poor fit] | –
15 | COC(=O)c1ccc([C@H]2Nc3ccc(S(=O)(=O)Nc4cccc(C)c4)cc3[C@H]3C=CC[C@H]32)cc1 | active: 4.47 µM | –
16 | CN(CC1COc2ccccc2O1)C(=O)c1cccc(S(=O)(=O)N2CCCC2)c1 (stereo unspecified) | active: 1 µM | –
17 | Cc1cc(CN2CCN(c3ccc(F)cc3)CC2)cs1 | inconclusive: 20 µM [inhibitor, partial curve, poor fit] | –
18 | O=c1ccn(CCOc2ccc(Cl)cc2)c(=O)[nH]1 | – | inactive: -14.3% [at 2.33 µM]
19 | O=C1OCCN1CCNCc1cn(-c2ccc(F)cc2)nc1-c1ccccc1Cl | inconclusive: 0.398 µM [inhibitor, partial curve, poor fit] | –
20 | C/C(=N\Nc1ccccc1C(=O)O)c1ccncc1 | inconclusive: 79.4 µM [inhibitor, single point] | –
21 | CN(C)S(=O)(=O)c1cccc(C(=O)NCc2cccs2)c1 | – | inactive: -8.74% [at 12.7 µM]
22 | N/C(=N\OC(=O)C1CCCCC1)c1ccc(Cl)cc1 | inactive | –
23 | O=C(Nc1nnc(-c2ccco2)s1)C1CCCCC1 | inactive | –

Row | SMILES | Potency | activity, negative = inhibition
24 | CC(C)CC(COCc1ccc([N+](=O)[O-])cc1)N1CCN(C(=O)c2ccc(C(F)(F)F)cc2)CCC1=O (stereo unspecified) | active: 50.1 µM | –
25 | CCOC(=O)c1cc2c(ccn2C)n1Cc1ccc(C#N)cc1 | active: 39.8 µM | –
26 | Cc1[nH]n(-c2ccccc2)c(=O)c1/C=N/Nc1nncc(-c2ccccc2)n1 | active: 20 µM | –
27 | CCN(CC)CCN1C(=O)C(=O)/C(=C(/O)c2cnn(-c3ccccc3)c2C)C1c1cccs1 (stereo unspecified) | inconclusive: 35.5 µM [inhibitor, single point] | –
28 | Cc1cccc(N(CC(N)=O)C2SC(=O)N(Cc3cccc(C(=O)O)c3)C2=O)c1 (stereo unspecified) | inactive | –
29 | O=c1c(-c2ccccc2)c(O)c2cccc3c2n1CCC3 | active: 39.8 µM | –
30 | Nc1ccc(C(=O)N2CCN(S(=O)(=O)c3ccc(Cl)cc3)CC2)cc1[N+](=O)[O-] | inconclusive: 79.4 µM [inhibitor, partial curve, poor fit] | –
31 | Cc1ccc(-n2ncc(-c3nn[nH]n3)c2N)cc1 | inconclusive: 50.1 µM [inhibitor, partial curve] | –
32 | CCN1CCN(Cc2cccc(Oc3ccc(Cl)cc3)c2)CC1 | – | inconclusive: -67.9% [inhibitor]
33 | COC(=O)C(=O)/C=C(\O)c1ccc(C)cc1 | active: 2 µM | –
34 | CCc1cccc(NC(=O)COC(=O)C2CCN(c3ccc(C(F)(F)F)cn3)CC2)c1 | – | inactive: 10.8% [at 0.501 µM]
35 | COc1ccc(Cn2c(CO)cnc2SCc2cccc(C)c2)cc1 | inactive | –
36 | COc1cccc(C2C(C(=O)c3cccs3)=C(O)C(=O)N2c2cc(C)on2)c1 (stereo unspecified) | – | inconclusive: -81.2% [inhibitor]
37 | Cc1ccc(C2=NOC(C)(c3nnc(-c4ccc(F)cc4)o3)C2)cc1 (stereo unspecified) | – | inconclusive: -116% [inhibitor] [at 12.7 µM]
38 | Cc1cccc(C)c1NC(=S)Nc1c(C)n(C)n(-c2ccccc2)c1=O | active: 0.794 µM | –
39 | Cc1cccc(OCC(=O)Nc2cccc(C(=O)Nc3ccccc3C(=O)O)c2)c1 | inconclusive: 31.6 µM [inhibitor, single point] | –
40 | CC(=O)c1c(C)nc(-c2cccc([N+](=O)[O-])c2)n1O | – | inconclusive: -87.6% [inhibitor]
41 | CC(=NCCN1CCN(C(C)=C2C(=O)c3ccccc3C2=O)CC1)C1=C(O)CC(C)(C)CC1=O | inconclusive: 35.5 µM [inhibitor, single point] | –
42 | Cc1cccc(-n2ncc3c2CCCC3NC(=O)CCN2Cc3ccccc3C2=O)c1C (stereo unspecified) | inactive | –
43 | CCN1CCN(c2nc(SC)nc3sc4c(c23)CC(C)(C)OC4)CC1 | inconclusive: 56.2 µM [inhibitor, partial curve, poor fit] | –
44 | COc1ccc(/C(C)=N/OC/C(O)=C(\C#N)c2nc3ccccc3[nH]2)cc1 | inconclusive: 70.8 µM [inhibitor, single point] | –
45 | Cc1ccc(C2CC(=O)Oc3cc4c(cc32)OCO4)cc1 (stereo unspecified) | inconclusive: 31.6 µM [inhibitor, partial curve, poor fit] | –
46 | CCN1CCN(CCC(=O)Nc2cc(OC)ccc2OC)CC1 | inconclusive: 79.4 µM [inhibitor, single point] | –

Source: PubChem BioAssay AID504332 (National Center for Advancing Translational Sciences (NCATS), 2011)
